Usually % Inhibition stands for the drop in the measured response relative to a control, in per cent.

In all, about 150,000 compounds went through this assay and about 540 (0.36%) showed an effect of 50% or more. The list shows a part of the results.

This experiment deals with Plasmodium falciparum. The experiment is described as follows: Primary screen in NF54 nanoGlo assay, in single point, at 2uM, 72h; a lower Z score goes with more inhibition. It is filed as functional, Erythrocyte. To be noted: timepoint 72 hour.
Take `Cc1ccc(C)c(S(=O)(=O)NCC(=O)NC(C)(C)C)c1`: the “% Inhibition” value is -3% and the Z score was determined as 0.53.

Consider `O=C(c1[nH]nc(C2CC2)c1Br)N(C1CCCCC1)C1CC1`, for which the “% Inhibition” value is -2% and the Z score worked out at 0.24.

On to `CCO[C@H]1CCOC2(CCN(C(=O)Nc3cccc(C)c3)CC2)C1`, for which the “% Inhibition” value is recorded as -5% and the Z score was 0.87.

For the compound `Cc1ccc(C)c(CN2CC[C@H](N3CCN(Cc4nc(C)no4)C3=O)C2)c1`, the “% Inhibition” value is reported as -3% and the Z score stood at 0.63.

For `COc1ccc(CNC(=O)CCS(=O)(=O)c2cc(-c3cc(C)no3)ccc2OC)cc1`, the “% Inhibition” value is -1% and the Z score was determined as 0.11.

In the case of `O=C(CC1CCCCC1)N1CCC[C@H]1C1CCNCC1`, the “% Inhibition” value is listed as -1% and the Z score was 0.19.

Consider `O=C(NCCc1ccccc1)N[C@H]1C[C@H]2OCC[C@@H]12`, for which the “% Inhibition” value was -2% and the Z score is reported as 0.29.

Turning to `O=C(CN1CCC[C@H]1c1cccs1)Nc1cccc(S(=O)(=O)N2CCCC2)c1`, the “% Inhibition” value worked out at 1% and the Z score is recorded as -0.12.

With `CCCc1cc(CN(C)C(=O)Nc2cccc(-c3csc(C)n3)c2)n[nH]1`, the “% Inhibition” value is on record as -1% and the Z score was 0.14.

Take `CC1(C)C[C@@H]1C(=O)NCC1CCN(S(N)(=O)=O)CC1`: the “% Inhibition” value was -14% and the Z score turned out to be 1.53.

Regarding `Cc1ccc(NS(=O)(=O)c2cc(-c3ccno3)sc2C)c(Cl)c1`, the “% Inhibition” value came to 2% and the Z score is -0.23.

Take `Cc1cccn2c(=O)cc(CN(CCNS(C)(=O)=O)C3CC3)nc12`: the “% Inhibition” value is -7% and the Z score was 1.05.

Turning to `CC(C)CCc1nc(CCn2ccc(=O)[nH]c2=O)n(CC(F)(F)F)n1`, the “% Inhibition” value is listed as -3% and the Z score worked out at 0.46.

With `O=C(NC1CC1)[C@@H]1CN(Cc2ccc(Cl)c(F)c2)C[C@H]1CO`, the “% Inhibition” value is listed as -14% and the Z score was 2.13.

For `Cc1nnc([C@@H]2CN(C(=O)c3ccccc3)CCCN2C(=O)c2ccccc2)o1`, the “% Inhibition” value is given as -10% and the Z score came to 1.53.

`COCCc1nc(CN2CCNC(=O)C2)n(CCc2ccccc2)n1`: the “% Inhibition” value is recorded as -2% and the Z score worked out at 0.36.

For `Cc1nc([C@H]2CCOC(C)(C)C2)n(CC(F)(F)F)n1`, the “% Inhibition” value was -8% and the Z score stood at 1.5.

Consider `O=C(Nc1nncs1)c1ccc(-c2ccc3c(c2)OCCO3)s1`, for which the “% Inhibition” value came out at 1% and the Z score is on record as -0.27.

In the case of `O=S(=O)(NCC=Cc1cccnc1)N1CCCCC1`, the “% Inhibition” value is -14% and the Z score is on record as 2.17.

As to `CCCC(=O)NCCc1ccc([C@H](C)O)s1`, the “% Inhibition” value was -9% and the Z score was found to be 1.81.

With `CN(Cc1ccc(CC(=O)O)cc1)CC1(CO)CCCC1`, the “% Inhibition” value is 0% and the Z score was -0.04.

In the case of `CCn1nnc2c(N3CC(C(=O)Nc4nc5c(s4)CCCC5)C3)ncnc21`, the “% Inhibition” value was -2% and the Z score was 0.25.

For `O=S1(=O)CCC[C@H](NS(=O)(=O)c2ccc(C(F)F)cc2)C1`, the “% Inhibition” value is recorded as 10% and the Z score was -1.21.

With `O=C(Nc1ccccc1N1CCOCC1)c1cc2c(s1)CCCC2`, the “% Inhibition” value was determined as 5% and the Z score is reported as -0.65.

In the case of `CC(C)c1nnc([C@H]2CN(C(=O)C3CCCCC3)CC23CCOCC3)o1`, the “% Inhibition” value was -10% and the Z score is recorded as 1.97.

For the compound `Cn1cc(S(=O)(=O)N2CCCCCC2)cc1C(=O)Nc1ccc(F)cc1`, the “% Inhibition” value is -11% and the Z score was determined as 1.55.

`Cc1cnc(NC(=O)c2cc3c(s2)CCCCCC3)s1`: the “% Inhibition” value was -1% and the Z score is 0.21.

In the case of `CC(=O)Nc1nc(N2CCC(C(=O)N[C@@H](C)c3ccncc3)CC2)sc1C(=O)N1CCCC1`, the “% Inhibition” value is -27% and the Z score was 2.61.

On to `NCCOc1cccc(CC(=O)N2CCn3cccc3[C@H]2c2cccnc2)c1`, for which the “% Inhibition” value is on record as -6% and the Z score is 0.89.

`Cc1cc(C(=O)N2CCN(C(=O)C3CC3(C)C(C)C)[C@H](C)C2)n[nH]1` (some centres not stated): the “% Inhibition” value is listed as -4% and the Z score turned out to be 0.74.

As for `O=C(N[C@H]1CC12CCN(C(=O)c1ccoc1)CC2)c1ccccc1`, the “% Inhibition” value is reported as -14% and the Z score is listed as 1.78.

As to `Cc1nonc1CNC[C@H](O)c1ccc(Br)cc1`, the “% Inhibition” value was 1% and the Z score is -0.25.

Take `CCc1onc(C)c1NC(=O)N[C@@H]1CCC[C@@H]1Oc1cnn(C)c1`: the “% Inhibition” value is -8% and the Z score is listed as 1.57.

Consider `CC(C)(C)OC(=O)N[C@@]1(C(=O)O)CCCC1(C)C`, for which the “% Inhibition” value came out at 12% and the Z score is -1.37.

Turning to `CN(Cc1nc2ccccc2c(=O)[nH]1)C(=O)NCc1noc(C2CCCC2)n1`, the “% Inhibition” value is listed as -22% and the Z score was found to be 2.2.

Turning to `NC(=O)c1cccc(OC(=O)c2cc3cc(F)ccc3[nH]2)c1`, the “% Inhibition” value is 5% and the Z score was -0.86.

In the case of `O=C(O)c1cc2c3c(c1)C1CCCCC1CN3C(c1ccccc1)C1CC=CC21` (configuration not stated), the “% Inhibition” value worked out at 3% and the Z score is given as -0.34.

As to `Cc1cc(=O)n(CCN2CC(c3ccccn3)C2)c(=O)[nH]1`, the “% Inhibition” value is on record as -5% and the Z score was 0.99.

On to `Cc1cccc(C)c1CCNC(=O)N1CCO[C@H](c2nccs2)C1`, for which the “% Inhibition” value is on record as -2% and the Z score was 0.21.

In the case of `O=S(=O)(NCc1cccc2nsnc12)[C@H]1C[C@@H]1c1ccccc1`, the “% Inhibition” value is -1% and the Z score was 0.14.

In the case of `O=C(C1CCn2cncc2C1)N1CCC(C2CCCC2)C1` (configuration not stated), the “% Inhibition” value is recorded as -4% and the Z score was found to be 0.51.

The record behind these values is ChEMBL document CHEMBL4888484, “Replenishing the malaria drug discovery pipeline: Screening and hit evaluation of the MMV Hit Generation Library 1 (HGL1) against asexual blood stage Plasmodium falciparum ,using a nano luciferase reporter read-out” (2022).
